Assay results from patent US20240076343A1 (CEPHALON, published 2024).

T1: intermediate affinity hIL-2 receptor complex (IL-2Rβγ) on TF1+IL-2Rβ cells (human, UniProt P14784 27-551; P31785 23-369)
T1 sequence 1: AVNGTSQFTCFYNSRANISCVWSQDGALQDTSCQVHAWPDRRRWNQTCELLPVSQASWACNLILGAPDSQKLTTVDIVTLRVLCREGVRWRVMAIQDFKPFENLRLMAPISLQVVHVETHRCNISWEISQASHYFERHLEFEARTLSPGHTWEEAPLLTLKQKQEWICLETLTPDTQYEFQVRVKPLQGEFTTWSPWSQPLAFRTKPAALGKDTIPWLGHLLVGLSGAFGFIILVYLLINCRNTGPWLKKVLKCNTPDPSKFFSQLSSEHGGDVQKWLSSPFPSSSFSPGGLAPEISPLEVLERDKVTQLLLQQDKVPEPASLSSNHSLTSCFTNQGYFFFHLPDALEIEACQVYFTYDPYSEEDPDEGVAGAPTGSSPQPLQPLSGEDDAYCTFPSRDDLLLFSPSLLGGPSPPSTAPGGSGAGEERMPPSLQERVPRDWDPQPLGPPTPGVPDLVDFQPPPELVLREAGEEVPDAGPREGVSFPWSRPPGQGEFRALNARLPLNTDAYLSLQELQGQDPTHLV
T1 sequence 2: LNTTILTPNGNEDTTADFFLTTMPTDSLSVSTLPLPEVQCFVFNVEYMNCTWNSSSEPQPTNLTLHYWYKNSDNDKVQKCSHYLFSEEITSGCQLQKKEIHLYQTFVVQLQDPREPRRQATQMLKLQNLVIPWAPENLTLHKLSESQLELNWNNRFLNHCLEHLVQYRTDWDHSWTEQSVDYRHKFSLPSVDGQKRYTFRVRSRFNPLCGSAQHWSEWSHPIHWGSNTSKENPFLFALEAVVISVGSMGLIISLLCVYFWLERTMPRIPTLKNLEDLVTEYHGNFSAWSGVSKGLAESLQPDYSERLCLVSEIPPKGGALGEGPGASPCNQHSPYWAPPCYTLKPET

T2: high-affinity hIL-2 receptor (IL-2Rαβγ) (human, UniProt P01589 22-272; P14784 27-551; P31785 23-369)
T2 sequence 1: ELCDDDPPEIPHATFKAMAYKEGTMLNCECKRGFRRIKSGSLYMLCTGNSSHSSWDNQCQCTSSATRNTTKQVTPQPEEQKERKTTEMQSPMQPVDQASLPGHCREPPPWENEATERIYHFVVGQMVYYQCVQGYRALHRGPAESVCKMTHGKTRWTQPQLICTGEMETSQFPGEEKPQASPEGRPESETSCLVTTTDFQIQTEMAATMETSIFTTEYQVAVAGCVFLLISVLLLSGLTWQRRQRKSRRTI
T2 sequence 2: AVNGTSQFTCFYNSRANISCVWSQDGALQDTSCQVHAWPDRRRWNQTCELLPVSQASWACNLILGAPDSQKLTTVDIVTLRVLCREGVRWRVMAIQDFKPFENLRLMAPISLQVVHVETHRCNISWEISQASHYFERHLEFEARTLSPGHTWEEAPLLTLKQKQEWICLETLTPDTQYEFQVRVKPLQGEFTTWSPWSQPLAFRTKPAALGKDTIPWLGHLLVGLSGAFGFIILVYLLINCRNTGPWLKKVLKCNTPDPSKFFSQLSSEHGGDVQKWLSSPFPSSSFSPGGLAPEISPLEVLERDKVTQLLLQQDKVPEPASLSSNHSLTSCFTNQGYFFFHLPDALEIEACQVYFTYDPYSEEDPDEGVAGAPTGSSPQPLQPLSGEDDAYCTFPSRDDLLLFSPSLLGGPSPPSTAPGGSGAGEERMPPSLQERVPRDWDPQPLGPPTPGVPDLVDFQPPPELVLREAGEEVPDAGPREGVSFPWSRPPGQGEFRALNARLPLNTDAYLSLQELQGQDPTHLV
T2 sequence 3: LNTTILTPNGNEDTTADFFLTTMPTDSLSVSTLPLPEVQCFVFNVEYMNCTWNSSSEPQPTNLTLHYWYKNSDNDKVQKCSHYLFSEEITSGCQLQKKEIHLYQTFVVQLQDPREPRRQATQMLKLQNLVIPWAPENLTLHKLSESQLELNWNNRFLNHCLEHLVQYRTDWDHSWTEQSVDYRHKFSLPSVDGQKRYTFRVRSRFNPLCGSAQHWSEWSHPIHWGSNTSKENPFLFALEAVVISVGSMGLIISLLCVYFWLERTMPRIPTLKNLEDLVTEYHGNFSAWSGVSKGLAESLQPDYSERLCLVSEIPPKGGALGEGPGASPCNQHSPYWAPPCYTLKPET

T3: intermediate affinity hIL-2 receptor complex (IL-2Rβγ) (human, UniProt P14784 27-551; P31785 23-369)
T3 sequence 1: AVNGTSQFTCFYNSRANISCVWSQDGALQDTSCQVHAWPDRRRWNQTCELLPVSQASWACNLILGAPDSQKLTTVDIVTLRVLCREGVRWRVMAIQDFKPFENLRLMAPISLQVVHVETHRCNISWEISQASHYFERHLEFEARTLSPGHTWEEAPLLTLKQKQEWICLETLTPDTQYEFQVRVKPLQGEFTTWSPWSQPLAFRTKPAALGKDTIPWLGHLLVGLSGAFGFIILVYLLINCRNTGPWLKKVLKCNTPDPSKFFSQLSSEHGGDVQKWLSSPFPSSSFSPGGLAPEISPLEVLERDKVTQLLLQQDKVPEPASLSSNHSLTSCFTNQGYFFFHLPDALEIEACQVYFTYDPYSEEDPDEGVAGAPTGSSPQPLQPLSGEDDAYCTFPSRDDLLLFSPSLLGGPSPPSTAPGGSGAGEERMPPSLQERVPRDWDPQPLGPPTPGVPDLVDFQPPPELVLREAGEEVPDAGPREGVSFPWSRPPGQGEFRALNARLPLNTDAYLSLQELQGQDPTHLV
T3 sequence 2: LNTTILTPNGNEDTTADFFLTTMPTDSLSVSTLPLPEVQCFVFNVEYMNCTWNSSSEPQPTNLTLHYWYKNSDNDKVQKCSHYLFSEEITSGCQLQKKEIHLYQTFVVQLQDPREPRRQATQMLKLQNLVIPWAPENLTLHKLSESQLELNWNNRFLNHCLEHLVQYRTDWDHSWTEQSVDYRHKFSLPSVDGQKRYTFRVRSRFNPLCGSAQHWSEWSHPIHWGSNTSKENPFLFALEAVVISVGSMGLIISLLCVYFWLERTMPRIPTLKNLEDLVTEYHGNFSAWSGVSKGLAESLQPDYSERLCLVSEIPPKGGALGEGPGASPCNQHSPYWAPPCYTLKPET


Columns and labels:
Test in all cases: cell-based or functional assay
[1] = biological target: T1, intermediate affinity hIL-2 receptor …
[2] = biological target: T2, high-affinity hIL-2 receptor (IL-2Rαβγ)
[3] = biological target: T3, intermediate affinity hIL-2 receptor …

| Fold change from hIL-2 (TF1 + IL-2Rβ) [1] [fold] | Fold change from rhIL-2 (NK-92), pSTAT5 titration [2] [fold] | Fold change from rhIL-2 (TF1 + IL-2Rβ), pSTAT5 titration [3] [fold] | Binder |
| --- | --- | --- | --- |
| 14 | – | – | 1H3-hIgG1-L6-hCD25(1-164)-L20-hIL-2 (D20S) (other) heavy: EVQLVESGGGLVQPGRSLKLSCAVSGFTFSDYAMAWVRQAPKKGLEWVATISYDGSRTYYRDSVKGRFTISRDNAKITLYLQMDSLRSEDTATYYCARHGSGYFDYWGQGVMVTVSS[not shown - human IgG1 constant region]SGGGGSELCDDDPPEIPHATFKAMAYKEGTMLNCECKRGFRRIKSGSLYMLCTGNSSHSSWDNQCQCTSSATRNTTKQVTPQPEEQKERKTTEMQSPMQPVDQASLPGHCREPPPWENEATERIYHFVVGQMVYYQCVQGYRALHRGPAESVCKMTHGKTRWTQPQLICTSGGGGSGGGGSGGGGSGGGS[not shown - about 150 residues] light: DTVLTQSPALAVSPGERVTISCRASESVRTGVHWYQQKPGQQPKLLIYGASNLESGVPARFSGSGSGTDFTLTIDPVEADDTATYFCQQSWNDPFTFGSGTKLEIKRTVAAPSVFIFPPSDEQLKSGTASVVCLLNNFYPREAKVQWKVDNALQSGNSQESVTEQDSKDSTYSLSSTLTLSKADYEKHKVYACEVTHQGLSSPVTKSFNRGEC |
| – | > 10000 | > 10000 | 1H3-hIgG1-L6-hCD25(1-164)-L20-hIL-2 (D20I) (other) heavy: EVQLVESGGGLVQPGRSLKLSCAVSGFTFSDYAMAWVRQAPKKGLEWVATISYDGSRTYYRDSVKGRFTISRDNAKITLYLQMDSLRSEDTATYYCARHGSGYFDYWGQGVMVTVSS[not shown - human IgG1 constant region]SGGGGSELCDDDPPEIPHATFKAMAYKEGTMLNCECKRGFRRIKSGSLYMLCTGNSSHSSWDNQCQCTSSATRNTTKQVTPQPEEQKERKTTEMQSPMQPVDQASLPGHCREPPPWENEATERIYHFVVGQMVYYQCVQGYRALHRGPAESVCKMTHGKTRWTQPQLICTSGGGGSGGGGSGGGGSGGGS[not shown - about 150 residues] light: DTVLTQSPALAVSPGERVTISCRASESVRTGVHWYQQKPGQQPKLLIYGASNLESGVPARFSGSGSGTDFTLTIDPVEADDTATYFCQQSWNDPFTFGSGTKLEIKRTVAAPSVFIFPPSDEQLKSGTASVVCLLNNFYPREAKVQWKVDNALQSGNSQESVTEQDSKDSTYSLSSTLTLSKADYEKHKVYACEVTHQGLSSPVTKSFNRGEC |
| – | 184 | 20 | 1H3-hIgG1-L6-hCD25(1-164)-L20-hIL-2 (E15A) (other) heavy: EVQLVESGGGLVQPGRSLKLSCAVSGFTFSDYAMAWVRQAPKKGLEWVATISYDGSRTYYRDSVKGRFTISRDNAKITLYLQMDSLRSEDTATYYCARHGSGYFDYWGQGVMVTVSS[not shown - human IgG1 constant region]SGGGGSELCDDDPPEIPHATFKAMAYKEGTMLNCECKRGFRRIKSGSLYMLCTGNSSHSSWDNQCQCTSSATRNTTKQVTPQPEEQKERKTTEMQSPMQPVDQASLPGHCREPPPWENEATERIYHFVVGQMVYYQCVQGYRALHRGPAESVCKMTHGKTRWTQPQLICTSGGGGSGGGGSGGGGSGGGS[not shown - about 150 residues] light: DTVLTQSPALAVSPGERVTISCRASESVRTGVHWYQQKPGQQPKLLIYGASNLESGVPARFSGSGSGTDFTLTIDPVEADDTATYFCQQSWNDPFTFGSGTKLEIKRTVAAPSVFIFPPSDEQLKSGTASVVCLLNNFYPREAKVQWKVDNALQSGNSQESVTEQDSKDSTYSLSSTLTLSKADYEKHKVYACEVTHQGLSSPVTKSFNRGEC |
